The IC50 comes from the fitted curve, where viability falls to half of the control; where the fit passes the top or lowest dose, that dose stands as a limit. AUC sums up the same curve from the lowest dose to the 256-fold higher top dose; it is 1 without any effect and falls as sensitivity rises. For some assays here: A top dose marked as inferred was calculated from the reported fits. For some assays here: An entry number marks a drug with two screens in the source, which often give different values.
Assays:
Test in all cases: Viability of human cancer cell lines after 72 h of drug (GDSC screen)
[1] = compound: N#CC(c1ccnc(NCCc2cccnc2)n1)c1nc2ccccc2s1 [AS601245]; conditions: top dose 8 µM; top dose inferred
Procedure: (§1)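 Human cancer cell lines in 384-well plates, medium with 10% serum, drug for 72 h over a 256-fold dose range (nine 2-fold or five 4-fold steps up to the top dose). Adherent lines were fixed and stained with the nucleic acid dye Syto60, suspension lines read with resazurin; signal relative to control wells, capped at 0 and 100%. One two-parameter sigmoid per drug and line, fitted in a mixed model over all curves with the slope shared within a line.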

[2] = compound: Cc1ccc(NC(=O)c2cccc(C(C)(C)C#N)c2)cc1Nc1ccc2ncn(C)c(=O)c2c1 [AZ628]; conditions: top dose 4 µM; top dose inferred
Procedure: as §1

[3] = compound: Cn1cnc2c(F)c(Nc3ccc(Br)cc3Cl)c(C(=O)NOCCO)cc21 [AZD6244]; conditions: top dose 4 µM; screen: GDSC drug entry 1498; top dose inferred
Procedure: as §1

[4] = compound: Nc1ccc(C(=O)Nc2cccc(-c3nc(N4CCOCC4)c4oc5ncccc5c4n3)c2)cn1 [YM201636]; conditions: top dose 5.12 µM; top dose inferred
Procedure: as §1

[5] = compound: NC(=O)C1CCCc2c1[nH]c1ccc(Cl)cc21 [EX-527]; conditions: top dose 20 µM
Procedure: as §1

Row | Cell Line | AUC [1] | IC50 [1] [µM] | AUC [2] | IC50 [2] [µM] | AUC [3] | IC50 [3] [µM] | AUC [4] | IC50 [4] [µM] | AUC [5] | IC50 [5] [µM]
1 | C2BBe1 (large intestine, adherent) | 0.907 | > 8 | 0.971 | > 4 | 0.929 | > 4 | 0.917 | > 5.12 | 0.972 | > 20
2 | CA46 (Burkitt lymphoma, suspension) | 0.817 | 4.91 | 0.937 | > 4 | 0.984 | > 4 | 0.684 | 1.09 | 0.985 | > 20
3 | CAS-1 (glioma, adherent) | 0.881 | > 8 | 0.858 | > 4 | 0.891 | > 4 | 0.852 | > 5.12 | 0.974 | > 20
4 | CCRF-CEM (lymphoblastic leukaemia, suspension) | 0.884 | 6.23 | 0.908 | > 4 | 0.943 | > 4 | 0.825 | 2.43 | 0.989 | > 20
5 | CESS (acute myeloid leukaemia, suspension) | 0.863 | 5.35 | 0.88 | 3.12 | 0.973 | > 4 | 0.661 | 0.83 | 0.99 | > 20
6 | CHP-126 (neuroblastoma, suspension) | 0.91 | > 8 | 0.983 | > 4 | 0.986 | > 4 | 0.889 | > 5.12 | 0.977 | > 20
7 | CL-11 (large intestine, adherent) | 0.987 | > 8 | 0.754 | 1.5 | 0.345 | 0.0878 | 0.986 | > 5.12 | 0.984 | > 20
8 | CMK (acute myeloid leukaemia, suspension) | 0.737 | 2.08 | 0.988 | > 4 | 0.985 | > 4 | 0.84 | 2.76 | 0.982 | > 20
9 | COLO-320-HSR (large intestine, suspension) | 0.919 | > 8 | 0.99 | > 4 | 0.99 | > 4 | 0.793 | 2 | 0.982 | > 20
10 | COLO-668 (small cell lung carcinoma, adherent) | 0.836 | 5.3 | 0.935 | > 4 | 0.946 | > 4 | 0.927 | > 5.12 | 0.989 | > 20
11 | COLO-684 (endometrium, suspension) | 0.859 | 7.98 | 0.967 | > 4 | 0.973 | > 4 | 0.734 | 1.64 | 0.984 | > 20
12 | COLO-800 (melanoma, adherent) | 0.988 | > 8 | 0.887 | > 4 | 0.97 | > 4 | 0.942 | > 5.12 | 0.985 | > 20
13 | COLO-824 (breast, adherent) | 0.887 | > 8 | 0.95 | > 4 | 0.979 | > 4 | 0.934 | > 5.12 | 0.983 | > 20
14 | COLO-829 (melanoma, adherent) | 0.875 | > 8 | 0.291 | 0.0478 | 0.727 | 1.53 | 0.94 | > 5.12 | 0.961 | > 20
15 | COR-L88 (small cell lung carcinoma, adherent) | 0.977 | > 8 | 0.956 | > 4 | 0.965 | > 4 | 0.895 | > 5.12 | 0.984 | > 20
16 | COR-L95 (small cell lung carcinoma, adherent) | 0.955 | > 8 | 0.958 | > 4 | 0.984 | > 4 | 0.915 | > 5.12 | 0.986 | > 20
17 | COR-L279 (small cell lung carcinoma, suspension) | 0.976 | > 8 | 0.974 | > 4 | 0.99 | > 4 | 0.926 | > 5.12 | 0.944 | > 20
18 | CP66-MEL (melanoma, adherent) | 0.95 | > 8 | 0.42 | 0.146 | 0.249 | 0.0423 | 0.879 | > 5.12 | 0.98 | > 20
19 | CPC-N (small cell lung carcinoma, suspension) | 0.925 | > 8 | 0.889 | > 4 | 0.983 | > 4 | 0.89 | > 5.12 | 0.984 | > 20
20 | CTB-1 (B-cell lymphoma, suspension) | 0.95 | > 8 | 0.87 | > 4 | 0.915 | > 4 | 0.709 | 1.57 | 0.977 | > 20
21 | CTV-1 (acute myeloid leukaemia, suspension) | 0.766 | 2.4 | 0.767 | 1.21 | 0.975 | > 4 | 0.773 | 1.61 | 0.984 | > 20
22 | CW-2 (large intestine, adherent) | 0.989 | > 8 | 0.979 | > 4 | 0.932 | > 4 | 0.944 | > 5.12 | 0.986 | > 20
23 | D-263MG (glioma, adherent) | 0.976 | > 8 | 0.807 | 2.59 | 0.706 | 1.08 | 0.961 | > 5.12 | 0.976 | > 20
24 | D-283MED (medulloblastoma, adherent) | 0.924 | > 8 | 0.974 | > 4 | 0.988 | > 4 | 0.991 | > 5.12 | 0.99 | > 20
25 | D-392MG (glioma, adherent) | 0.897 | > 8 | 0.54 | 0.333 | 0.853 | > 4 | 0.892 | > 5.12 | 0.96 | > 20

Row | Cell Line | AUC [1] | IC50 [1] [µM] | AUC [2] | IC50 [2] [µM] | AUC [3] | IC50 [3] [µM] | AUC [4] | IC50 [4] [µM] | AUC [5] | IC50 [5] [µM]
26 | D-502MG (glioma, adherent) | 0.966 | > 8 | 0.732 | 1.69 | 0.661 | 0.902 | 0.917 | > 5.12 | 0.94 | > 20
27 | DB (B-cell lymphoma, suspension) | 0.904 | > 8 | 0.946 | > 4 | 0.98 | > 4 | 0.699 | 1.26 | 0.952 | > 20
28 | DEL (lymphoid neoplasm, suspension) | 0.843 | 3.99 | 0.991 | > 4 | 0.993 | > 4 | 0.98 | > 5.12 | 0.967 | > 20
29 | DG-75 (Burkitt lymphoma, suspension) | 0.982 | > 8 | 0.977 | > 4 | 0.959 | > 4 | 0.897 | > 5.12 | 0.974 | > 20
30 | DJM-1 (skin, adherent) | 0.955 | > 8 | 0.907 | > 4 | 0.955 | > 4 | 0.95 | > 5.12 | 0.987 | > 20
31 | DMS-79 (small cell lung carcinoma, suspension) | 0.983 | > 8 | 0.978 | > 4 | 0.979 | > 4 | 0.942 | > 5.12 | 0.987 | > 20
32 | DMS-114 (small cell lung carcinoma, adherent) | 0.967 | > 8 | 0.947 | > 4 | 0.942 | > 4 | 0.902 | > 5.12 | 0.977 | > 20
33 | DSH1 (bladder, adherent) | 0.91 | > 8 | 0.901 | > 4 | 0.982 | > 4 | 0.907 | > 5.12 | 0.989 | > 20
34 | DU-4475 (breast, suspension) | 0.883 | 5.85 | 0.147 | 0.0276 | 0.244 | 0.0547 | 0.881 | 3.69 | 0.983 | > 20
35 | Daudi (Burkitt lymphoma, suspension) | 0.848 | 4.81 | 0.924 | > 4 | 0.99 | > 4 | 0.873 | 3.87 | 0.989 | > 20
36 | EB2 (Burkitt lymphoma, suspension) | 0.864 | 5.91 | 0.861 | 2.9 | 0.988 | > 4 | 0.782 | 1.94 | 0.985 | > 20
37 | EB-3 (Burkitt lymphoma, suspension) | 0.903 | > 8 | 0.9 | > 4 | 0.976 | > 4 | 0.752 | 1.94 | 0.968 | > 20
38 | EC-GI-10 (oesophagus, adherent) | 0.973 | > 8 | 0.989 | > 4 | 0.869 | 3.64 | 0.965 | > 5.12 | 0.989 | > 20
39 | EJM (lymphoid neoplasm, semi-adherent) | 0.909 | > 8 | 0.976 | > 4 | 0.984 | > 4 | 0.909 | > 5.12 | 0.985 | > 20
40 | EKVX (lung adenocarcinoma, adherent) | 0.843 | > 8 | 0.926 | > 4 | 0.865 | > 4 | 0.956 | > 5.12 | 0.948 | > 20
41 | EM-2 (chronic myeloid leukaemia, suspension) | 0.87 | > 8 | 0.481 | 0.22 | 0.49 | 0.234 | 0.905 | > 5.12 | 0.979 | > 20
42 | ES1 (Ewing sarcoma, adherent) | 0.908 | > 8 | 0.891 | > 4 | 0.97 | > 4 | 0.613 | 0.65 | 0.961 | > 20
43 | ES3 (Ewing sarcoma, adherent) | 0.868 | > 8 | 0.923 | > 4 | 0.973 | > 4 | 0.739 | 1.62 | 0.977 | > 20
44 | ES4 (Ewing sarcoma, adherent) | 0.802 | 4.63 | 0.968 | > 4 | 0.97 | > 4 | 0.703 | 1.31 | 0.949 | > 20
45 | ES5 (Ewing sarcoma, adherent) | 0.912 | > 8 | 0.937 | > 4 | 0.965 | > 4 | 0.626 | 0.754 | 0.975 | > 20
46 | ES6 (Ewing sarcoma, adherent) | 0.77 | 3.77 | 0.916 | > 4 | 0.926 | > 4 | 0.866 | > 5.12 | 0.957 | > 20
47 | ES7 (Ewing sarcoma, adherent) | 0.768 | 3.09 | 0.978 | > 4 | 0.967 | > 4 | 0.438 | 0.216 | 0.95 | > 20
48 | ES8 (Ewing sarcoma, adherent) | 0.835 | 4.74 | 0.939 | > 4 | 0.946 | > 4 | 0.672 | 0.925 | 0.983 | > 20
49 | ES-2 (ovary, adherent) | 0.978 | > 8 | 0.787 | 1.51 | 0.497 | 0.246 | 0.948 | > 5.12 | 0.991 | > 20
50 | ETK-1 (biliary tract, adherent) | 0.833 | 6.19 | 0.969 | > 4 | 0.904 | > 4 | 0.81 | 3.15 | 0.983 | > 20

— the supplement of paper PMC4967469
